Experiment [1] addresses T1, human CD28 protein (Acro, CD8-H525a) (human, UniProt P10747 19-152).
T1 construct: coated on the ELISA plate; also called human CD28 antigen
Description: ELISA, coated human CD28. Background: ELISA stands for enzyme-linked immunosorbent assay.

The target of experiment [2] is T2, human CTLA4 protein (Acro, CT4-H52H9) (human, UniProt P16410 36-161).
T2 construct: coated on the ELISA plate; also called human CTLA4 antigen
T2 sequence (looked up): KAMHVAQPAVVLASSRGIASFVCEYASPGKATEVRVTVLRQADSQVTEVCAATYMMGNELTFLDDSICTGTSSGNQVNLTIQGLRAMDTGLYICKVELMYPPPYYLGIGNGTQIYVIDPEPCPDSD
Description: ELISA, coated human CTLA4.

One may read the EC50 as the concentration at which the effect is half-maximal.

T1 sequence (P10747 19-152 limits assumed): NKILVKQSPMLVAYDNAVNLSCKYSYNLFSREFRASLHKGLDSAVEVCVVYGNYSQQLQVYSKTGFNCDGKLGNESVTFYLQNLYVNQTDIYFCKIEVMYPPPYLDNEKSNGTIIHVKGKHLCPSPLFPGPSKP

B1: functional antibody Abs-300 (Fc fusion)
chain: APLKIQAYFNETADLPCQFANSQNISLSELVVLWQDQENLVLNEVYLGKEKFDSVHSKYMGRTSFDSDSWTLRLHNLQIKDKGLYQCIIIHKKPTGMIRIHQMNSELSVLANFSQPEIVPISNITENVYINLTCSSIHGYPEPKKMSVLLRTKNSTIEYDGVMQKSQDNVTELYDVSISLSVSFPDVTSNMTIFCILETDKTRLLSSPFSIELEDPQPPPDHIP[left out - human IgG4 Fc]
notes: CD86 ECD Q25I/F33L/H90I - IgG4 Fc
For the molecule B1, the figures for the EC50 in experiment [1] and in experiment [2] were 0.289 nM and 0.0793 nM, respectively.

B2: functional antibody Abs-301 (Fc fusion)
chain: APLKIQAYFNETADLPCQFANSQNVSLSELVVLWQDQENLVLNEVYLGKEKFDSVHSKYMGRTSFDSDSWTLRLHNLQIKDKGLYQCIIIHKKPTGMIRIHQMNSELSVLANFSQPEIVPISNITENVYINLTCSSIHGYPEPKKMSVLLRTKNSTIEYDGVMQKSQDNVTELYDVSISLSVSFPDVTSNMTIFCILETDKTRLLSSPFSIELEDPQPPPDHIP[left out - human IgG4 Fc]
notes: CD86 ECD Q25V/F33L/H90I - IgG4 Fc
In the case of B2, the results for the EC50 in experiment [1] and in experiment [2] were 0.489 nM and 0.127 nM, respectively.

B3: functional antibody Abs-333 (Fc fusion)
chain: APLKIQAYFNETADLPCQFANSQNQSLSELVVFWQDQENLVLNEVYLGKEKFDSVHSKYMGRTSFDSDSWTLRLHNLQIKDKGLYQCIIHHKKPTGMIRIHQMNSELSVLANFSQPEIVPISNITENVYINLTCSSIHGYPEPKKMSVLLRTKNSTIEYDGVMQKSQDNVTELYDVSISLSVSFPDVTSNMTIFCILETDKTRLLSSPFSIELEDPQPPPDHIP[left out - human IgG4 Fc]
notes: unmutated CD86 ECD - IgG4 Fc
As to B3, the EC50 came out at 10 nM in experiment [1] and 0.254 nM in experiment [2].

B4: functional antibody Abs-367 (Fc fusion)
chain: APLKIQAYFNETADLPCQFANSQNQSLSELVVFWQDQENLVLNEVYLGKEKFDSVHSKYMGRTSFDSDSWTLRLHNLQIKDKGLYQCIIHHKKPTGMIRIHQMNSELSVL[left out - human IgG4 Fc]
notes: unmutated CD86 IgV - IgG4 Fc
On to B4, for which the EC50 in experiment [1] was determined as 5.98 nM; in experiment [2], 0.794 nM.

B5: functional antibody Abs-351 (Fc fusion)
chain: APLKIQAYFNETADLPCQFANSQNISLSELVVLWQDQENLVLNEVYLGKEKFDSVHSKYMGRTSFDSDSWTLRLHNLQIKDKGLYQCIIFHKKPTGMIRIHQMNSELSVL[left out - human IgG4 Fc]
notes: CD86 IgV Q25I/F33L/H90F - IgG4 Fc
Regarding B5, the EC50 is 2.97 nM in experiment [1] and 1.1 nM in experiment [2].

B6: functional antibody Abs-338 (Fc fusion)
chain: APLKIQAYFNETADLPCQFANSQNISLSELVVLWQDQENLVLNEVYLGKEKFDSVHSKYMGRTSFDSDSWTLRLHNLQIKDKGLYQCIIVHKKPTGMIRIHQMNSELSVL[left out - human IgG4 Fc]
notes: CD86 IgV Q25I/F33L/H90V - IgG4 Fc
With B6, the EC50 was 0.0302 nM in experiment [1] and 0.43 nM in experiment [2].

B7: functional antibody Abs-337 (Fc fusion)
chain: APLKIQAYFNETADLPCQFANSQNVSLSELVVVWQDQENLVLNEVYLGKEKFDSVHSKYMGRTSFDSDSWTLRLHNLQIKDKGLYQCIIIHKKPTGMIRIHQMNSELSVL[left out - human IgG4 Fc]
notes: CD86 IgV Q25V/F33V/H90I - IgG4 Fc
For B7, the EC50 in experiment [1] is 0.0531 nM; in experiment [2] it was 0.592 nM.

B8: functional antibody Abs-354 (Fc fusion)
chain: APLKIQAYFNETADLPCQFANSQNVSLSELVVFWQDQENLVLNEVYLGKEKFDSVHSKYMGRTSFDSDSWTLRLHNLQIKDKGLYQCIIVHKKPTGMIRIHQMNSELSVL[left out - human IgG4 Fc]
notes: CD86 IgV Q25V/H90V - IgG4 Fc
On to B8, for which the values for the EC50 in experiment [1] and in experiment [2] were 0.0331 nM and 0.42 nM, respectively.

B9: functional antibody Abs-341 (Fc fusion)
chain: APLKIQAYFNETADLPCQFANSQNVSLSELVVVWQDQENLVLNEVYLGKEKFDSVHSKYMGRTSFDSDSWTLRLHNLQIKDKGLYQCIIVHKKPTGMIRIHQMNSELSVL[left out - human IgG4 Fc]
notes: CD86 IgV Q25V/F33V/H90V - IgG4 Fc
In the case of B9, the EC50 in experiment [1] stood at 0.0432 nM; in experiment [2] it was 0.497 nM.

B10: functional antibody Abs-343 (Fc fusion)
chain: APLKIQAYFNETIDLPCQFANSQNISLSELVVLWQDQENLVLNEVYLGKEKFDSVHSKYMGRTSFDSDSWTLRLHNLQIKDKGLYQCIIIHKKPTGMIRIHQMNSELSVL[left out - human IgG4 Fc]
notes: CD86 IgV A13I/Q25I/F33L/H90I - IgG4 Fc
Consider B10, for which the EC50 in experiment [1] turned out to be 0.0242 nM; in experiment [2], 0.313 nM.

B11: functional antibody Abs-336 (Fc fusion)
chain: APLKIQAYFNETADLPCQFANSQNISLSELVVVWQDQENLVLNEVYLGKEKFDSVHSKYMGRTSFDSDSWTLRLHNLQIKDKGLYQCIIIHKKPTGMIRIHQMNSELSVL[left out - human IgG4 Fc]
notes: CD86 IgV Q25I/F33V/H90I - IgG4 Fc
With B11, the EC50 is 0.0327 nM in experiment [1] and 0.602 nM in experiment [2].

B12: functional antibody Abs-342 (Fc fusion)
chain: APLKIQAYFNETLDLPCQFANSQNISLSELVVLWQDQENLVLNEVYLGKEKFDSVHSKYMGRTSFDSDSWTLRLHNLQIKDKGLYQCIIIHKKPTGMIRIHQMNSELSVL[left out - human IgG4 Fc]
notes: CD86 IgV A13L/Q25I/F33L/H90I - IgG4 Fc
For the molecule B12, the EC50 was found to be 0.0493 nM in experiment [1] and 0.514 nM in experiment [2].

B13: functional antibody Abs-347 (Fc fusion)
chain: APLKIQAYFNETADLPCQFANSQNISLSELVVLWQDQENLVLNEVYLGKEKFDSVHSKYRGRTSFDSDSWTLRLHNLQIKDKGLYQCIIIHKKPTGMIRIHQMNSELSVL[left out - human IgG4 Fc]
notes: CD86 IgV Q25I/F33L/M60R/H90I - IgG4 Fc
Consider B13, for which the EC50 in experiment [1] is 0.0407 nM; in experiment [2] it was 0.41 nM.

B14: functional antibody Abs-349 (Fc fusion)
chain: APLKIQAYFNETADLPCQFANSQNVSLSELVVLWQDQENLVLNEVYLGKEKFDSVHSKYRGRTSFDSDSWTLRLHNLQIKDKGLYQCIIIHKKPTGMIRIHQMNSELSVL[left out - human IgG4 Fc]
notes: CD86 IgV Q25V/F33L/M60R/H90I - IgG4 Fc
For the molecule B14, the EC50 in experiment [1] was 0.0493 nM; in experiment [2], 0.328 nM.

B15: functional antibody Abs-353 (Fc fusion)
chain: APLKIQAYFNETADLPCQFANSQNISLSELVVFWQDQENLVLNEVYLGKEKFDSVHSKYMGRTSFDSDSWTLRLHNLQIKDKGLYQCIIIHKKPTGMIRIHQMNSELSVL[left out - human IgG4 Fc]
notes: CD86 IgV Q25I/H90I - IgG4 Fc
For the molecule B15, the EC50 in experiment [1] came out at 0.0487 nM; in experiment [2], 0.297 nM.

B16: functional antibody Abs-348 (Fc fusion)
chain: APLKIQAYFNETADLPCQFANSQNVSLSELVVLWQDQENLVLNEVYLGKEKFDSVHSKYMGRTSFDSDSWTLRLHNLQIKDKGLYQCILIHKKPTGMIRIHQMNSELSVL[left out - human IgG4 Fc]
notes: CD86 IgV Q25V/F33L/I89L/H90I - IgG4 Fc
For B16, the EC50 worked out at 0.0318 nM in experiment [1] and 0.437 nM in experiment [2].

B17: functional antibody Abs-344 (Fc fusion)
chain: APLKIQAYFNETLDLPCQFANSQNVSLSELVVLWQDQENLVLNEVYLGKEKFDSVHSKYMGRTSFDSDSWTLRLHNLQIKDKGLYQCIIIHKKPTGMIRIHQMNSELSVL[left out - human IgG4 Fc]
notes: CD86 IgV A13L/Q25V/F33L/H90I - IgG4 Fc
As for B17, the EC50 in experiment [1] worked out at 2.4 nM; in experiment [2] it was 0.917 nM.

B18: functional antibody Abs-335 (Fc fusion)
chain: APLKIQAYFNETADLPCQFANSQNVSLSELVVLWQDQENLVLNEVYLGKEKFDSVHSKYMGRTSFDSDSWTLRLHNLQIKDKGLYQCIIIHKKPTGMIRIHQMNSELSVL[left out - human IgG4 Fc]
notes: CD86 IgV Q25V/F33L/H90I - IgG4 Fc
With B18, the EC50 in experiment [1] worked out at 0.0897 nM; in experiment [2] it was 0.706 nM.

B19: functional antibody Abs-352 (Fc fusion)
chain: APLKIQAYFNETADLPCQFANSQNISLSELVVAWQDQENLVLNEVYLGKEKFDSVHSKYMGRTSFDSDSWTLRLHNLQIKDKGLYQCIIIHKKPTGMIRIHQMNSELSVL[left out - human IgG4 Fc]
notes: CD86 IgV Q25I/F33A/H90I - IgG4 Fc
B19: the EC50 in experiment [1] was 10.5 nM; in experiment [2], 5.97 nM.

B20: functional antibody Abs-340 (Fc fusion)
chain: APLKIQAYFNETADLPCQFANSQNISLSELVVVWQDQENLVLNEVYLGKEKFDSVHSKYMGRTSFDSDSWTLRLHNLQIKDKGLYQCIIVHKKPTGMIRIHQMNSELSVL[left out - human IgG4 Fc]
notes: CD86 IgV Q25I/F33V/H90V - IgG4 Fc
Turning to B20, the EC50 in experiment [1] is 4.4 nM; in experiment [2], 1.89 nM.

B21: functional antibody Abs-350 (Fc fusion)
chain: APLKIQAYFNETADLPCQFANSQNFSLSELVVLWQDQENLVLNEVYLGKEKFDSVHSKYMGRTSFDSDSWTLRLHNLQIKDKGLYQCIIIHKKPTGMIRIHQMNSELSVL[left out - human IgG4 Fc]
notes: CD86 IgV Q25F/F33L/H90I - IgG4 Fc
In the case of B21, the EC50 in experiment [1] is 0.039 nM; in experiment [2] it was 0.437 nM.

B22: functional antibody Abs-334 (Fc fusion)
chain: APLKIQAYFNETADLPCQFANSQNISLSELVVLWQDQENLVLNEVYLGKEKFDSVHSKYMGRTSFDSDSWTLRLHNLQIKDKGLYQCIIIHKKPTGMIRIHQMNSELSVL[left out - human IgG4 Fc]
notes: CD86 IgV Q25I/F33L/H90I - IgG4 Fc
As for B22, the values for the EC50 in experiment [1] and in experiment [2] were 0.0315 nM and 0.521 nM, respectively.

B23: functional antibody Abs-346 (Fc fusion)
chain: APLKIQAYFNETADLPCQFANSQNISLSELVVLWQDQENLVLNEVYLGKEKFDSVHSKYMGRTSFDSDSWTLRLHNLQIKDKGLYQCILIHKKPTGMIRIHQMNSELSVL[left out - human IgG4 Fc]
notes: CD86 IgV Q25I/F33L/I89L/H90I - IgG4 Fc
Consider B23, for which the EC50 in experiment [1] is 0.0418 nM; in experiment [2], 0.493 nM.

B24: functional antibody Abs-345 (Fc fusion)
chain: APLKIQAYFNETIDLPCQFANSQNVSLSELVVLWQDQENLVLNEVYLGKEKFDSVHSKYMGRTSFDSDSWTLRLHNLQIKDKGLYQCIIIHKKPTGMIRIHQMNSELSVL[left out - human IgG4 Fc]
notes: CD86 IgV A13I/Q25V/F33L/H90I - IgG4 Fc
In the case of B24, the figures for the EC50 in experiment [1] and in experiment [2] were 0.0249 nM and 0.347 nM, respectively.

B25: functional antibody Abs-339 (Fc fusion)
chain: APLKIQAYFNETADLPCQFANSQNVSLSELVVLWQDQENLVLNEVYLGKEKFDSVHSKYMGRTSFDSDSWTLRLHNLQIKDKGLYQCIIVHKKPTGMIRIHQMNSELSVL[left out - human IgG4 Fc]
notes: CD86 IgV Q25V/F33L/H90V - IgG4 Fc
Consider B25, for which the EC50 in experiment [1] came to 2.26 nM; in experiment [2] it was 1.07 nM.
